Laboratory results taken from patent publication US10905706B2, “Compositions and methods to accelerate resolution of acute lung inflammation” (The Johns Hopkins University, priority 2015, dated 2021).

Tested on: WT C57BL/6 mice
Test: IL-4 treatment after i.t. LPS, C57BL/6 mice

Substance: IL-4: recombinant IL-4 cytokine (PeptroTech); in the examples given i.p. as a complex with anti-IL-4 antibody
- FIZZ1-expressing monocytes or macrophages within the lung (day 4, flow cytometry): significantly more
- MFI of FIZZ1 expression among FIZZ1-positive cells (i.t. LPS, vs sham): similar
